# Measured values reported in the supplement of paper PMC8728848.
# The other results are listed elsewhere or left out.
# Legend:
# Test in all cases: glycan array binding signal (z-score within array); higher = stronger binding
# Details in all cases: glycan notation: IUPAC condensed, linker removed
# [1] = target: Gal(b1-4)GlcNAc(b1-6)[Gal(b1-3)]GalNAc
# Outline: (§1)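 Glycan array binding is given as a within-array Z-score, which can be read as non-binding when negative. The arrays, 3228 of them, came from the Consortium for Functional Glycomics database and were retained only where the protein sequence was available. Z-scores were averaged across arrays of the same protein sequence at different concentrations or buffers and across linkers.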
# [2] = target: Gal(b1-4)GlcNAc(b1-6)[Gal(b1-4)GlcNAc(b1-3)]GalNAc
# Outline: as §1
# Gal(b1-4)GlcNAc6P = target: Gal(b1-4)GlcNAc6P
# Outline: as §1
# Gal(b1-6)Gal = target: Gal(b1-6)Gal
# Outline: as §1
# Gal3S(b1-3)GalNAc = target: Gal3S(b1-3)GalNAc
# Outline: as §1
# Gal3S(b1-3)GlcNAc = target: Gal3S(b1-3)GlcNAc
# Outline: as §1
# [3] = target: Gal3S(b1-3)[Fuc(a1-4)]GlcNAc
# Outline: as §1
# Gal3S(b1-4)Glc = target: Gal3S(b1-4)Glc
# Outline: as §1
# Gal3S(b1-4)Glc6S = target: Gal3S(b1-4)Glc6S
# Outline: as §1
# Gal3S(b1-4)GlcNAc = target: Gal3S(b1-4)GlcNAc
# Outline: as §1
# Gal3S(b1-4)GlcNAc6S = target: Gal3S(b1-4)GlcNAc6S
# Outline: as §1
# [4] = target: Gal3S(b1-4)[Fuc(a1-3)]Glc6S
# Outline: as §1
# [5] = target: Gal3S(b1-4)[Fuc(a1-3)]GlcNAc
# Outline: as §1
# [6] = target: Gal3S(b1-4)[Fuc(a1-3)]GlcNAc6S
# Outline: as §1
# Gal3S4S(b1-4)GlcNAc = target: Gal3S4S(b1-4)GlcNAc
# Outline: as §1
# Gal3S6S(b1-4)GlcNAc = target: Gal3S6S(b1-4)GlcNAc
# Outline: as §1
# Gal3S6S(b1-4)GlcNAc6S = target: Gal3S6S(b1-4)GlcNAc6S
# Outline: as §1
# Gal4S(b1-4)GlcNAc = target: Gal4S(b1-4)GlcNAc
# Outline: as §1
# Gal4S6S(b1-4)GlcNAc = target: Gal4S6S(b1-4)GlcNAc
# Outline: as §1
# Gal6P(b1-4)GlcNAc = target: Gal6P(b1-4)GlcNAc
# Outline: as §1
# Gal6S(b1-3)GlcNAc = target: Gal6S(b1-3)GlcNAc
# Outline: as §1
# Gal6S(b1-3)GlcNAc6S = target: Gal6S(b1-3)GlcNAc6S
# Outline: as §1
# Gal6S(b1-4)Glc = target: Gal6S(b1-4)Glc
# Outline: as §1
# Gal6S(b1-4)Glc6S = target: Gal6S(b1-4)Glc6S
# Outline: as §1
# Gal6S(b1-4)GlcNAc = target: Gal6S(b1-4)GlcNAc
# Outline: as §1
# Gal6S(b1-4)GlcNAc6S = target: Gal6S(b1-4)GlcNAc6S
# Outline: as §1
# GalNAc(a1-3)Gal = target: GalNAc(a1-3)Gal
# Outline: as §1
# GalNAc(a1-3)GalNAc = target: GalNAc(a1-3)GalNAc
# Outline: as §1
# [7] = target: GalNAc(a1-3)GalNAc(b1-3)Gal(a1-4)Gal(b1-4)Glc
# Outline: as §1
# [8] = target: GalNAc(a1-3)GalNAc(b1-3)Gal(a1-4)Gal(b1-4)GlcNAc
# Outline: as §1
# GalNAc(b1-3)Gal = target: GalNAc(b1-3)Gal
# Outline: as §1
# [9] = target: GalNAc(b1-3)Gal(a1-4)Gal(b1-4)GlcNAc
# Outline: as §1
# [10] = target: GalNAc(b1-3)Gal(a1-4)Gal(b1-4)GlcNAc(b1-3)Gal(b1-4)Glc
# Outline: as §1
# [11] = target: GalNAc(b1-3)Gal(a1-6)Gal(b1-4)Glc
# Outline: as §1
# GalNAc(b1-3)GalNAc = target: GalNAc(b1-3)GalNAc
# Outline: as §1
# GalNAc(b1-3)GlcNAc = target: GalNAc(b1-3)GlcNAc
# Outline: as §1
# GalNAc(b1-4)Gal(b1-4)Glc = target: GalNAc(b1-4)Gal(b1-4)Glc
# Outline: as §1
# GalNAc(b1-4)GlcNAc = target: GalNAc(b1-4)GlcNAc
# Outline: as §1
# [12] = target: GalNAc(b1-4)GlcNAc(b1-2)Man
# Outline: as §1
# [13] = target: GalNAc(b1-4)GlcNAc(b1-2)Man(a1-3)[GalNAc(b1-4)GlcNAc(b1-2)Man(a1-6)]Man(b1-4)GlcNAc(b1-4)GlcNAc
# Outline: as §1
# [14] = target: GalNAc(b1-4)GlcNAc(b1-3)GalNAc(b1-4)GlcNAc
# Outline: as §1
# GalNAc(b1-4)GlcNAc6S = target: GalNAc(b1-4)GlcNAc6S
# Outline: as §1
# GalNAc(b1-6)GalNAc = target: GalNAc(b1-6)GalNAc
# Outline: as §1
# GalNAc3S(b1-4)GlcNAc = target: GalNAc3S(b1-4)GlcNAc
# Outline: as §1
# GalNAc3S(b1-4)GlcNAc3S = target: GalNAc3S(b1-4)GlcNAc3S
# Outline: as §1
binder,measurement,setting,value
"ABA (Agaricus bisporus), Q00022 (protein) MTYTISIRVYQTTPKGFFRPVERTNWKYANGGTWDEVRGEYVLTMGGSGTSGSLRFVSSDTDESFVATFGVHNYKRWCDIVTNLTNEQTALVINQEYYGVPIRDQARENQLTSYNVANAKGRRFAIEYTVTEGDNLKANLIIG",glycan array binding signal (z-score),[1],0.995
same,glycan array binding signal (z-score),[2],-0.189
same,glycan array binding signal (z-score),Gal(b1-4)GlcNAc6P,-0.104
same,glycan array binding signal (z-score),Gal(b1-6)Gal,-0.214
same,glycan array binding signal (z-score),Gal3S(b1-3)GalNAc,2.46
same,glycan array binding signal (z-score),Gal3S(b1-3)GlcNAc,-0.254
same,glycan array binding signal (z-score),[3],-0.269
same,glycan array binding signal (z-score),Gal3S(b1-4)Glc,-0.109
same,glycan array binding signal (z-score),Gal3S(b1-4)Glc6S,-0.184
same,glycan array binding signal (z-score),Gal3S(b1-4)GlcNAc,-0.236
same,glycan array binding signal (z-score),Gal3S(b1-4)GlcNAc6S,-0.178
same,glycan array binding signal (z-score),[4],-0.22
same,glycan array binding signal (z-score),[5],-0.368
same,glycan array binding signal (z-score),[6],-0.179
same,glycan array binding signal (z-score),Gal3S4S(b1-4)GlcNAc,-0.254
same,glycan array binding signal (z-score),Gal3S6S(b1-4)GlcNAc,-0.211
same,glycan array binding signal (z-score),Gal3S6S(b1-4)GlcNAc6S,-0.265
same,glycan array binding signal (z-score),Gal4S(b1-4)GlcNAc,-0.245
same,glycan array binding signal (z-score),Gal4S6S(b1-4)GlcNAc,-0.187
same,glycan array binding signal (z-score),Gal6P(b1-4)GlcNAc,-0.267
same,glycan array binding signal (z-score),Gal6S(b1-3)GlcNAc,-0.293
same,glycan array binding signal (z-score),Gal6S(b1-3)GlcNAc6S,-0.294
same,glycan array binding signal (z-score),Gal6S(b1-4)Glc,-0.206
same,glycan array binding signal (z-score),Gal6S(b1-4)Glc6S,-0.233
same,glycan array binding signal (z-score),Gal6S(b1-4)GlcNAc,-0.249
same,glycan array binding signal (z-score),Gal6S(b1-4)GlcNAc6S,-0.266
same,glycan array binding signal (z-score),GalNAc(a1-3)Gal,-0.234
same,glycan array binding signal (z-score),GalNAc(a1-3)GalNAc,-0.247
same,glycan array binding signal (z-score),[7],-0.223
same,glycan array binding signal (z-score),[8],-0.204
same,glycan array binding signal (z-score),GalNAc(b1-3)Gal,-0.222
same,glycan array binding signal (z-score),[9],-0.3
same,glycan array binding signal (z-score),[10],-0.315
same,glycan array binding signal (z-score),[11],-0.15
same,glycan array binding signal (z-score),GalNAc(b1-3)GalNAc,0.071
same,glycan array binding signal (z-score),GalNAc(b1-3)GlcNAc,-0.262
same,glycan array binding signal (z-score),GalNAc(b1-4)Gal(b1-4)Glc,-0.127
same,glycan array binding signal (z-score),GalNAc(b1-4)GlcNAc,-0.262
same,glycan array binding signal (z-score),[12],-0.265
same,glycan array binding signal (z-score),[13],0.052
same,glycan array binding signal (z-score),[14],-0.29
same,glycan array binding signal (z-score),GalNAc(b1-4)GlcNAc6S,-0.293
same,glycan array binding signal (z-score),GalNAc(b1-6)GalNAc,-0.264
same,glycan array binding signal (z-score),GalNAc3S(b1-4)GlcNAc,-0.26
same,glycan array binding signal (z-score),GalNAc3S(b1-4)GlcNAc3S,-0.304
